Screen size: about 46,000 compounds; about 60 (0.1%) were called active. Not shown: some 3% with an inconclusive outcome. Calls follow the shape of the dose curve; as a rule, active = well fitted inhibition curve with a large enough effect; inconclusive = small, poorly fitted or top-dose-only effect; inactive = no such curve, though single readings can be large or run the other way. This is one part of the list.

This test in a line: Primary qHTS assay for Inhibitors of ovarian cancer metastasis using an organotypic tumor microenvironment (TME) model. Also: nearly all actives have a fitted effect of over 65% in size.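 As to activity change, negative = inhibition: plate controls were DMSO wells for no effect and tomatine positive control wells for full effect.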 As to conditions: SKOV3ip1-GFP adhesion/invasion on 3D omental model, fluorescence; series mostly up to 45.8 µM; activity change, negative = inhibition: at the top concentration. An outline of the steps: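 Primary human omental fibroblast/mesothelial 3D culture pre-formed 48 h. SKOV3ip1-GFP cells added with compounds (0.36-46 umol/L), incubated 2 h RT/16 h 37 C, fixed; GFP cells quantified at 488/509 nm.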
(In general: qHTS replaces the single test concentration by a dilution series.)
Turning to `Cc1ccc(C2=NN(CC(=O)NC(C)c3ccccc3)C(=O)CC2)cc1` (stereo not drawn), the “activity change, negative = inhibition” value is inactive: 3.62%.

With `COC(=O)c1cc2sc(C)cc2n1Cc1ccccc1`, the molecule was called inactive.

Take `Cc1ccc(CNC(=O)CSc2ccc(-c3sc(-c4ccccc4)nc3C)nn2)cc1`: the “activity change, negative = inhibition” value was inactive: -12.8%.

For the molecule `CCCOC(=O)c1ccc(NC(=O)Cn2nnc3sc4c(c3c2=O)CCC(C(C)(C)C)C4)cc1` (stereo not drawn), the “activity change, negative = inhibition” value was inactive: 2.4%.

`CCOC(=O)CNC(=O)c1cc2c(=O)n(CC)c3ccccc3c2s1`: the “activity change, negative = inhibition” value is inactive: -8.56%.

`Cc1ccc(CSc2oc(-c3ccco3)nc2S(=O)(=O)c2ccc(Cl)cc2)cc1`: the “activity change, negative = inhibition” value is inactive: -6.08%.

On to `CCOC(=O)c1cccc(NC(=O)c2cc(S(=O)(=O)N3CCCC3)cn2C)c1`, for which the “activity change, negative = inhibition” value was inactive: 8.05%.

Consider `COc1ccc(-c2onc(C)c2C)cc1S(=O)(=O)Nc1ccc(OC(F)(F)F)cc1`, for which the “activity change, negative = inhibition” value is inactive: 5.35%.

Turning to `O=C(Nc1cccc(C(F)(F)F)c1)c1cc2nc(-c3ccccc3)cc(C(F)(F)F)n2n1`, the “activity change, negative = inhibition” value was inactive: 0.0477%.

As to `CCCOc1ccc(-c2cccc(NS(=O)(=O)c3cccs3)c2)nn1`, the “activity change, negative = inhibition” value is inactive: 0.163%.

As for `CCOc1ccc(CCNC(=O)CN2C(=O)c3cccnc3Oc3ccc(C)cc32)cc1OCC`, the call was inactive.

With `COc1ccc(NC(=O)c2ccco2)cc1NC(=O)C(C)Oc1ccc(Cl)cc1Cl` (stereo not drawn), the “activity change, negative = inhibition” value is inactive: 58.7%.

Regarding `COc1cccc(CNS(=O)(=O)c2c(C)nc3scc(C)n3c2=O)c1`, the “activity change, negative = inhibition” value is inactive: -0.998%.

Regarding `CCCOc1ccc(/C=C/C(=O)Nc2sc3c(c2C(=O)OCC)CCC(C)C3)cc1OC` (stereo not drawn), the “activity change, negative = inhibition” value is inactive: -3.45%.

For the molecule `CC(=O)c1cc(-c2ccc(F)cc2)n(CC(=O)NC2CCCCCC2)c1C`, the “activity change, negative = inhibition” value was inactive: -19.8%.

In the case of `O=S(=O)(c1ccc(Br)cc1)c1nc(-c2ccco2)oc1SCc1ccccc1F`, the “activity change, negative = inhibition” value is inactive: 12.5%.

For the molecule `COc1ccc(-c2cccc(NS(=O)(=O)c3cccs3)c2)nn1`, the “activity change, negative = inhibition” value is inactive: -8.49%.

As for `Clc1ccc(N2CCN(Cc3nnc(-c4ccc5c(c4)OCO5)o3)CC2)cc1`, the “activity change, negative = inhibition” value is inactive: 3.31%.

As to `CCOc1ccccc1CNC(=O)CCCn1c(=O)c2cccn2c2cccnc21`, the “activity change, negative = inhibition” value is inactive: 6.67%.

Consider `COc1ccc(-c2cc(C)no2)cc1S(=O)(=O)N1CCN(c2ccc(C(C)=O)cc2)CC1`, for which the outcome was inactive.

As for `Cc1ccc2onc(CC(=O)N3CCN(c4ccccc4F)CC3)c2c1`, the “activity change, negative = inhibition” value was inactive: 3.51%.

As for `Cc1oc2ccc(O)c(CN3CCOCC3)c2c1C(=O)Nc1ccc(C(C)C)cc1`, the “activity change, negative = inhibition” value is inactive: -8.71%.

Consider `CC(=O)N1c2ccccc2CC1C(=O)N1CCN(c2cccc(C)c2C)CC1` (stereo not drawn), for which the “activity change, negative = inhibition” value is inactive: 37.7%.

Take `Clc1ccccc1CSc1nncn2c1cc1occc12`: the “activity change, negative = inhibition” value was inactive: -8.85%.

In the case of `O=C(CCCn1c(=O)c2cccn2c2ccccc21)Nc1cccc(Cl)c1`, the “activity change, negative = inhibition” value was inactive: -0.439%.

Take `Cc1ccc2oc(-c3cccc(NC(=O)c4cccc5c(Br)cccc45)c3)nc2c1`: the molecule was classed as inactive.

Turning to `COc1ccc(NC(=O)CC2Nc3cccc4cccc(c34)NC2=O)cc1` (stereo not drawn), the molecule was classed as inactive.

As for `CCCCN(CC)C(=O)c1c[nH]c2ccc(S(=O)(=O)Nc3cccc(OC)c3)cc2c1=O`, the “activity change, negative = inhibition” value was inactive: 2.26%.

With `COc1ccc(NC(=O)C2=C(C)Nc3c(C(=O)Nc4ccc(C)cc4)cnn3C2c2cccc(Cl)c2)cc1` (stereo not drawn), the “activity change, negative = inhibition” value was inactive: -1.23%.

On to `CCC(=O)O[C@]1(C(=O)SCF)[C@H](C)C[C@H]2[C@@H]3C[C@H](F)C4=CC(=O)C=C[C@]4(C)[C@@]3(F)[C@@H](O)C[C@@]21C`, for which the “activity change, negative = inhibition” value was inactive: 1.92%.

As to `Cc1ccc(NC(=O)C2CCN(S(=O)(=O)c3cccs3)CC2)cc1`, the “activity change, negative = inhibition” value is inactive: 6.9%.

In the case of `COC(=O)c1c(C)sc(-c2c(-c3ccc(F)cc3)[nH]c3[nH]c(=O)[nH]c(=O)c23)c1O`, the “activity change, negative = inhibition” value was inactive: -6.49%.

In the case of `CCC(=O)N1CCc2cc(S(=O)(=O)CCC(=O)NCc3ccccc3Cl)ccc21`, the “activity change, negative = inhibition” value is inactive: 3.83%.

Consider `CCCc1nn2c(=O)cc(COC(=O)c3ccccc3NC(=O)C3CCCCC3)nc2s1`, for which the “activity change, negative = inhibition” value is inactive: 3.26%.

For the molecule `COc1ccc(C(=O)NCC(c2cccnc2)N2CCN(c3ccccc3F)CC2)cc1OC` (stereo not drawn), the “activity change, negative = inhibition” value is inactive: -2.57%.

Take `Cc1ccc(-n2c(SCc3nc(-c4ccc(Cl)cc4)no3)nnc2-c2ccncc2)cc1`: the “activity change, negative = inhibition” value was inactive: 15.6%.

Consider `COCCCNC(=O)N1CCN(c2nnc(C)c3c(C)n(-c4ccc(Cl)cc4)nc23)CC1`, for which the result was inactive.

With `CCc1ccc(NC(=O)CN(c2ccc(C)cc2)S(=O)(=O)c2c(C)nn(C)c2C)cc1`, the outcome was inactive.

As to `CC1=C(C(=O)OC2CCCCCC2)C(c2ccccc2Cl)CC(=O)N1` (stereo not drawn), the “activity change, negative = inhibition” value was inactive: 1.06%.

As for `COc1ccc(CCNC(=O)CCc2c(C)nc3c(-c4ccc(F)cc4)c(C)nn3c2C)cc1OC`, the result was inactive.

For `Cc1ccccc1CN1C(=O)c2ccccc2S(=O)c2ccc(C(=O)NCc3ccccc3)cc21` (stereo not drawn), the molecule was classed as inactive.

In the case of `Cc1oc2ncn(C)c(=O)c2c1C(=O)N1CCN(c2ccc(Cl)cc2)CC1`, the “activity change, negative = inhibition” value was inactive: -2.56%.

On to `COc1ccc(-c2c(C)nn3c(C(F)(F)F)cc(C)nc23)cc1OC`, for which the “activity change, negative = inhibition” value was inactive: 10.8%.

Turning to `COc1cccc(CNCCCSc2nnnn2C)c1`, the “activity change, negative = inhibition” value is inactive: -11.5%.

Regarding `COc1ccc(Cn2c(C(=O)O)c(CNCCc3cccs3)c3ccc(OC)cc32)cc1`, the “activity change, negative = inhibition” value was inactive: 6.74%.

As to `CCOc1cccc(CC(=O)N2CCc3c([nH]c4ccccc34)C2c2ccc(OC)cc2)c1OCC` (stereo not drawn), the “activity change, negative = inhibition” value was inactive: 2.91%.

For the molecule `O=C(c1cc(-c2ccc(Cl)cc2)on1)N(Cc1ccc(F)cc1)Cc1ccco1`, the molecule was called inactive.

For the molecule `Cc1nn(C)c2c1c(-c1ccccc1)cc(=O)n2Cc1c(F)cccc1Cl`, the “activity change, negative = inhibition” value is inactive: -8.97%.

The values above are taken from PubChem BioAssay AID1963576 (National Center for Advancing Translational Sciences (NCATS), 2024).
